Experimental findings from the antibiotic and cytotoxicity screens of Wong et al. (2023) are described below.

Structures are written as SMILES. Some of the results follow.

One assay has as its system HepG2. The assay is described as follows: cytotoxicity call (relative viability < 0.9). The settings on record: 10 µM.
For the compound `Cc1ccc(S(=O)(=O)N(C)C[C@H]2Oc3ccc(NC(=O)Nc4ccc(C(F)(F)F)cc4)cc3CC(=O)N([C@H](C)CO)C[C@H]2C)cc1`, the cytotoxicity call is “active”. With `C[C@@H]1CN([C@@H](C)CO)C(=O)c2cc(NC(=O)Cc3ccccc3)ccc2O[C@@H](C)CCCCO[C@@H]1CN(C)Cc1ccc(C(F)(F)F)cc1`, the cytotoxicity call was “inactive”.

As for `C[C@@H]1CN([C@H](C)CO)S(=O)(=O)c2ccc(C#CCN(C)C)cc2O[C@H]1CN(C)S(C)(=O)=O`, the cytotoxicity call is “inactive”. On to `CO[C@H](CN(C)C(=O)c1ccccc1F)[C@@H](C)CN([C@H](C)CO)S(=O)(=O)c1ccc(Cl)cc1`, for which the cytotoxicity call was “inactive”. Still for that read-out and setting: to `NCC(=O)NCC(=O)O` belongs “inactive”; to `COc1ccccc1S(=O)(=O)N[C@H]1C=C[C@@H](CC(=O)N2CCOCC2)O[C@H]1CO`, “inactive”. For `Cn1cnc(S(=O)(=O)N2C[C@H](O)COC[C@@H]3O[C@H](CC(=O)NCc4cccc(F)c4)CC[C@H]32)c1`, the cytotoxicity call was “inactive”. `CC(=CCO)CCC(C)CCCC(C)CCCC(C)C` (stereo not given): the cytotoxicity call is “inactive”.

Consider `C[C@H]1CN([C@@H](C)CO)C(=O)c2cc(NC(=O)Cn3cnnn3)ccc2O[C@@H]1CN(C)C(=O)Nc1ccc(F)cc1`, for which the cytotoxicity call is “inactive”.

On to `C[C@@H]1CCCCO[C@@H](CN(C)C(=O)Nc2cccc3ccccc23)[C@@H](C)CN([C@H](C)CO)C(=O)c2cc(NC(=O)Nc3cccc4ccccc34)ccc2O1`, for which the cytotoxicity call was “inactive”.

For the next assay, the system named is S. aureus RN4220. The assay is described as follows: growth inhibition call (relative growth <= 0.2). The conditions noted are these: 50 µM.
Turning to `C[C@@H]1CN([C@@H](C)CO)C(=O)c2cccc(NS(=O)(=O)c3cn(C)cn3)c2O[C@@H]1CN(C)S(C)(=O)=O`, the growth inhibition call is “inactive”.

Turning to `COc1ccc2c3c(n(c2c1)C)[C@@H](CO)N(CC1CCOCC1)C[C@]13CN(C1)C(=O)c1cccc(c1)F`, the growth inhibition call was “inactive”. As to `COc1ccc(NC(=O)N(C)C[C@@H]2OCCCC[C@H](C)Oc3ccc(NC(=O)Cc4ccccc4)cc3C(=O)N([C@H](C)CO)C[C@@H]2C)cc1`, the growth inhibition call was “inactive”.

For the compound `C[C@@H]1CCCCO[C@H](CN(C)S(=O)(=O)c2ccc(F)cc2)[C@@H](C)CN([C@H](C)CO)C(=O)c2cc(NC(=O)Nc3ccc4c(c3)OCO4)ccc2O1`, the growth inhibition call was “inactive”. With `CC(C)NC(=O)Nc1ccc2c(c1)CC(=O)N([C@H](C)CO)C[C@@H](C)[C@H](CN(C)Cc1ccc(C(=O)O)cc1)O2`, the growth inhibition call is “inactive”. Regarding `C[C@@H]1CN([C@H](C)CO)C(=O)c2cc(NC(=O)CCC(F)(F)F)ccc2O[C@@H](C)CCCCO[C@H]1CN(C)C(=O)CCC(F)(F)F`, the growth inhibition call was “inactive”. Still for that read-out and setting: for `COc1ccc(-c2coc3cc(OC)ccc3c2=O)c(O)c1` the value was “inactive”; for `C[C@H](CO)N1C[C@H](C)[C@H](CN(C)CC2CC2)Oc2ccc(NC(=O)Cn3cnnn3)cc2CC1=O`, “inactive”; for `O=c1[nH]c(=O)n([C@@H]2C[C@@H](O)[C@@H](CO)O2)cc1F`, “active”. For `CC(=O)Nc1c(I)c(C(=O)N[C@@H]2[C@@H](O)[C@H](O)[C@@H](CO)O[C@@H]2O)c(I)c(N(C)C(C)=O)c1I`, the growth inhibition call was “inactive”.

In the case of `COc1ccc(NC(=O)Nc2ccc3c(c2)C(=O)N([C@H](C)CO)C[C@@H](C)[C@H](CN(C)C(=O)Nc2ccc(C(F)(F)F)cc2)O3)cc1`, the growth inhibition call is “inactive”.

On to `C[C@@H]1CN([C@@H](C)CO)C(=O)Cc2cc(NS(=O)(=O)c3cn(C)cn3)ccc2O[C@@H]1CN(C)C(=O)Nc1ccc(F)cc1`, for which the growth inhibition call was “inactive”.

For the compound `CC(=O)N1CCC2(CCCN2)CC1`, the growth inhibition call was “inactive”.

`C[C@H](CO)N1C[C@H](C)[C@H](CN(C)C(=O)Nc2ccc3c(c2)OCO3)OCCCC[C@H](C)Oc2ccc(NC(=O)NC3CCCCC3)cc2C1=O`: the growth inhibition call was “inactive”. Turning to `C[C@@H]1CN([C@@H](C)CO)S(=O)(=O)c2ccc(C#CCN(C)C)cc2O[C@@H]1CN(C)C(=O)CN(C)C`, the growth inhibition call is “inactive”.

As to `C[C@H](CO)N1C[C@H](C)[C@@H](CN(C)C(=O)Nc2ccc3c(c2)OCO3)OCCCC[C@H](C)Oc2ccc(NC(=O)Nc3ccc(F)cc3)cc2C1=O`, the growth inhibition call is “inactive”. Consider `C[C@H]1CN([C@@H](C)CO)C(=O)Cc2cc(NC(=O)Cn3cnnn3)ccc2O[C@H]1CN(C)S(=O)(=O)c1ccccc1`, for which the growth inhibition call is “inactive”. Same read-out and setting: for `O=C(C[C@@H]1C=C[C@@H](NC(=O)c2cccnc2)[C@@H](CO)O1)NCc1ccncn1` the value was “inactive”; for `COc1ccccc1-c1ccc2c(c1)O[C@H](CN(C)S(=O)(=O)c1ccccc1)[C@H](C)CN([C@@H](C)CO)S2(=O)=O`, “inactive”; for `C[C@@H]1CCCCO[C@H](CN(C)C(=O)c2ccccc2)[C@@H](C)CN([C@@H](C)CO)C(=O)c2cc(NC(=O)Nc3ccc(C(F)(F)F)cc3)ccc2O1`, “inactive”. On the same count and under the same terms, for `Cc1ccc(S(=O)(=O)N(C)C[C@@H]2Oc3ncc(Br)cc3C(=O)N([C@@H](C)CO)C[C@H]2C)cc1` the value was “inactive”; for `CCCC(=O)Nc1ccc2c(c1)OC[C@H](C)N(Cc1ccc(-c3ccccn3)cc1)C[C@H](C)[C@@H](OC)CN(C)C2=O`, “inactive”. With `COCC(=O)Nc1ccc2c(c1)C(=O)N(C)C[C@H](OC)[C@@H](C)CN(C(=O)Cc1cccnc1)[C@@H](C)CO2`, the growth inhibition call was “inactive”. Regarding `CC(C)NC(=O)Nc1cccc2c1O[C@@H](CN(C)S(=O)(=O)c1cccs1)[C@@H](C)CN([C@@H](C)CO)C2=O`, the growth inhibition call was “inactive”.

With `CO[C@H]1CN(C)C(=O)c2cc(NS(C)(=O)=O)ccc2OC[C@@H](C)N(C(=O)CN(C)C)C[C@H]1C`, the growth inhibition call is “inactive”. For `COc1ccc(CN(C)C[C@H]2OCCCC[C@@H](C)Oc3ccc(NS(=O)(=O)c4ccc(Cl)cc4)cc3C(=O)N([C@H](C)CO)C[C@H]2C)cc1`, the growth inhibition call was “inactive”. On the same count and under the same terms, to `NC(=O)C1N=CN([C@@H]2O[C@H](CO)[C@@H](O)[C@H]2O)C1=O` (stereo not given in full) belongs “inactive”; to `C[C@H](CO)N1C[C@H](C)[C@@H](CN(C)S(=O)(=O)c2ccccc2)Oc2ncc(Br)cc2C1=O`, “inactive”; to `Cc1noc(C)c1NC(=O)Nc1ccc2c(c1)C(=O)N([C@H](C)CO)C[C@H](C)[C@@H](CN(C)CC1CCCCC1)OCCCC[C@@H](C)O2`, “inactive”. Turning to `CCCN(C)C[C@H]1OCCCC[C@@H](C)Oc2ccc(NS(=O)(=O)c3cn(C)cn3)cc2C(=O)N([C@@H](C)CO)C[C@H]1C`, the growth inhibition call was “inactive”. For `Cc1ccc(S(=O)(=O)N(C)C[C@H]2Oc3ccc(NC(=O)Nc4ccc(C(F)(F)F)cc4)cc3CC(=O)N([C@H](C)CO)C[C@H]2C)cc1`, the growth inhibition call is “inactive”. Regarding `C[C@@H]1CN([C@@H](C)CO)C(=O)c2cc(NC(=O)Cc3ccccc3)ccc2O[C@@H](C)CCCCO[C@@H]1CN(C)Cc1ccc(C(F)(F)F)cc1`, the growth inhibition call was “inactive”. Same read-out and setting: to `C[C@@H]1CN([C@H](C)CO)S(=O)(=O)c2ccc(C#CCN(C)C)cc2O[C@H]1CN(C)S(C)(=O)=O` belongs “inactive”; to `CO[C@H](CN(C)C(=O)c1ccccc1F)[C@@H](C)CN([C@H](C)CO)S(=O)(=O)c1ccc(Cl)cc1`, “inactive”. In the case of `NCC(=O)NCC(=O)O`, the growth inhibition call was “inactive”. Still for that read-out and setting: to `COc1ccccc1S(=O)(=O)N[C@H]1C=C[C@@H](CC(=O)N2CCOCC2)O[C@H]1CO` belongs “inactive”; to `Cn1cnc(S(=O)(=O)N2C[C@H](O)COC[C@@H]3O[C@H](CC(=O)NCc4cccc(F)c4)CC[C@H]32)c1`, “inactive”.

For the compound `CC(=CCO)CCC(C)CCCC(C)CCCC(C)C` (stereo not given), the growth inhibition call was “inactive”. Regarding `C[C@H]1CN([C@@H](C)CO)C(=O)c2cc(NC(=O)Cn3cnnn3)ccc2O[C@@H]1CN(C)C(=O)Nc1ccc(F)cc1`, the growth inhibition call is “inactive”. For `C[C@@H]1CCCCO[C@@H](CN(C)C(=O)Nc2cccc3ccccc23)[C@@H](C)CN([C@H](C)CO)C(=O)c2cc(NC(=O)Nc3cccc4ccccc34)ccc2O1`, the growth inhibition call was “inactive”.
